# Measurements from the supplement of paper PMC11417369.
# ± gives the standard deviation of the averaged measurements. The list shows a part of the results.
# System: PfAP2-I AP2 domain 3 (GST-tagged)
# Assay: gcPBM binding intensity (ln(normalized median fluorescence intensity)); higher = stronger DNA binding
# In short: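 Probes on an Agilent 4 × 180k array were primer-extended, double-stranded and 36 bp long, taken from intergenic genomic regions, with negative controls added. GST-tagged P. falciparum DNA-binding domains from E. coli, about 25 μg on average, were applied to the array for 1 h in 1× PBS containing 1% milk, 0.2 mg/ml BSA, 0.5% salmon testes DNA and 0.03% Triton X-100. Binding intensity, obtained after Alexa488 anti-GST antibody detection and a 488 nm scan, is the highest Masliner-normalised natural-log median intensity across replicate spots of either probe orientation.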
row,Sequence,gcPBM binding intensity (ln)
1,CCTAGAAAAGTATATACACACGCGCAAAATAAAATT [CACACA_site1413],8.31 ± 0.69
2,CATGTTCATCAGAACGCACACATAATGGTTTACTTA [CACACA_site898],8.05 ± 0.48
3,AGTAACTAATTAAATGCATGTCGATATATATTATAT [TGCATGCA_site1038],7.82 ± 0.68
4,GTGTATATGTATATATGTACATAAATTTTTTTTTTT [XGTACX_site7083],7.63 ± 0.3
5,ACTTATATAAAACATTAACACACAAAGAAAAAAAAT [CACACA_site8529],8.13 ± 0.77
6,GATACACCAAATAACTGTACGCACGTGTAATATTAA [XGTACX_site3441],8.77 ± 0.46
7,AAGAAAAAAAAAATTACACACTGCGCACATACACAA [CACACA_site6721],8.38 ± 0.61
8,TATATATATATATATACACACATATATACCTATATA [CACACA_site6085],9.18 ± 0.41
9,ATTAAATACATTAACACACACACAAATATATACATA [CACACA_site2881],7.87 ± 0.37
10,AATAATAATACTAATCGTACGCATATTTTTCAAACC [XGTACX_site8055],7.98 ± 0.38
11,CATTTAACATAAATTAAACACACAATATAATACATT [CACACA_site8333],7.72 ± 0.61
12,AAAGATAAAATATTATGTACATATATATATATATAT [XGTACX_site5079],9.44 ± 0.54
13,GGGAATATAAGTACACGATAATATGTGATAAGGTCT [CACACA_negctrl_site1502],8.28 ± 0.86
14,TTTTATTTTTATTATACACACGCTTAATAAATGCAT [CACACA_site1751],7.99 ± 0.64
15,TGTATAAAAGTTTATACACACATTTGATATATTTCA [CACACA_site6606],7.68 ± 0.3
16,TATAAAAAAAACAAAAAAAAAAAAAAACAAAAAAAA [TGCATGCA_negctrl_site514],7.53 ± 0.76
17,TTTTTTTGTTGTTGTTGTACGATATTTTCCTTATCA [XGTACX_site2375],7.93 ± 0.54
18,GGGGGGATGAGATATTGTACTTTTTAGGAAAGTGTA [XGTACX_site2835],9.52 ± 0.11
19,CGTGGGAGCGGACACACACACACACCCATATATATA [CACACA_site4340],8.34 ± 0.69
20,AATTTAAAAGCTTGTGGTACTTTTGCTCTTCCTTTG [XGTACX_site3148],7.78 ± 0.69
21,TCAACAAATAAACTTTGTACATATATACAAAATATA [XGTACX_site4447],7.51 ± 0.33
22,TATGTATTAAATTTTACACACATGATTCTCTATATG [CACACA_site8720],7.62 ± 0.53

row,Sequence,gcPBM binding intensity (ln)
1,TATACATATTATATATGTACACATATTATATGTATA [XGTACX_site5851],7.55 ± 0.042
2,TAACATGATATATAATGTACATATAAGATATTTATA [XGTACX_site4383],7.79 ± 0.28
3,ATGAATTATATATTATGTACATATAATTAAAATATA [XGTACX_site7140],7.61 ± 0.18
4,TTTAAAAAAAAAAAAAAAAATTAAATGAATTATTAA [CACACA_negctrl_site1121],6.92 ± 0.52
5,ATACAAAAAAGAAGGACACACAGAAGTAACATGTTA [CACACA_site3074],7.84 ± 0.59
6,AAATATAATAATATATGTACATATATATATATATAT [XGTACX_site6980],9.22 ± 0.7
7,AAAAAAATATATATATATATATATATATATATATAT [TGCATGCA_negctrl_site7],9.19 ± 0.69
8,AAAAAAAAAAAAAAAAAAAAAAAAAAAAAAAAAAAT [CACACA_negctrl_site882],10.4 ± 0.23
9,AAATTAAATAAATTTACACACTAAAAGTTACCTATA [CACACA_site6623],7.54 ± 0.53
10,TTTGTTATTTATTAGTGTACAAAAAAGCATTTCAAA [XGTACX_site8729],7.96 ± 0.2
11,TACATTTATAATAATACACACATAAATTTACATTTT [CACACA_site3463],7.74 ± 0.39
12,TATGAAAATTAAGTTTGTACACAAGTGGAAAAAAAA [XGTACX_site6129],8.4 ± 0.42
13,ATATAAAGAAATTAATTTTTCAACAATAAAAATATA [CACACA_negctrl_site1262],7.46 ± 0.36
14,AATAATGTATAATGATGTACAAAAAAGGAAGACATA [XGTACX_site2474],8.23 ± 0.86
15,ATATTTTGTAATATTTGTACATATATTATACATATA [XGTACX_site963],7.89 ± 0.34
16,TTTTTTTTGCGTACAGTGCAAATTTATTTACTATTC,9.76 ± 0.21
17,TACATCGGTATATAAACACACAACAAAAATGCTTAC [CACACA_site5983],7.82 ± 0.77
18,AAAATAATTAAAAAAAGTACTCGTAATATAAATATA [XGTACX_site4967],7.82 ± 0.35
19,TTAAAAGATATTACATGTACATATTCAATATATGTA [XGTACX_site5895],7.62 ± 0.38
20,ACAAATAAATAAAAATGTACAAATGAATACATCTTA [XGTACX_site3780],7.33 ± 0.39
21,TTTTTTTAAAAAAACAAAAAAAAAAAAAATATAAAA [TGCATGCA_negctrl_site511],7.49 ± 0.55
22,TATGTAAAAAGAGAAAAAAAAAAGAACGATAATTTC [CACACA_negctrl_site946],7.51 ± 0.79
